Screen size: about 150,000 compounds; about 540 (0.36%) showed an effect of 50% or more. The list shows a part of the results.
System: Plasmodium falciparum
Experiment: Primary screen in NF54 nanoGlo assay, in single point, at 2uM, 72h; a lower Z score goes with more inhibition
Assay type: functional, Erythrocyte
Conditions: timepoint 72 hour

Row | Structure (SMILES) | % Inhibition [%] | Z score
1 | Cc1cccc(-c2nc(CN(C)C(C3CC3)C3CC3)c(C)o2)c1 | 4 | -0.56
2 | CCCN1C(=O)c2ccccc2C(C(=O)NC2CCCc3ccccc32)C1c1cc(OC)c(OC)c(OC)c1 (configuration not stated) | 14 | -2.3
3 | COCCCn1c(C)cc(C(=O)N2C[C@@H](C(N)=O)[C@H](c3nc(C)no3)C2)c1C | -9 | 1.37
4 | CCn1ncc(-c2nc3c(cnn3C)[nH]2)c1C | -1 | 0.12
5 | Cc1cnn(CC(=O)N2CCCN(S(=O)(=O)N3CCCCC3)CC2)c1 | -4 | 0.82
6 | O=C([C@@H]1Cn2cccc2C(=O)N1Cc1cccnc1)N1CCN(c2ccccn2)CC1 | -1 | 0.22
7 | CC(=O)Nc1cc(Br)ccc1Cl | -3 | 0.34
8 | O=C(Cc1csc(-c2ccccc2)n1)N1CCCC1 | -2 | 0.36
9 | CC(C)(C)c1noc(CNC(=O)CCCn2cnnn2)n1 | -3 | 0.34
10 | CCOc1ccc(C(=O)N[C@H]2C[C@@H](c3cc(N4CCOCC4)ncn3)C2)o1 | -5 | 1.02
11 | CCc1nnc(NC(=O)NCc2ncc(C(C)(C)C)o2)s1 | 0 | 0.04
12 | Brc1ccc(-c2nnc(Cn3nnnc3-c3ccncc3)o2)cc1 | 5 | -0.59
13 | O=C(CN1CCCCCC1)NC1CCN(C(=O)N2CCCCC2)CC1 | -12 | 2.62
14 | CC(C)Oc1cccc(-c2cccc3cnccc23)c1 | 12 | -1.69
15 | CC(C)(C)c1ncc(CN[C@@H]2C=C[C@H](CO)C2)s1 | 0 | 0.02
16 | CN(C(=O)Cn1c(=O)n(C)c(=O)c2ccccc21)C1CCCCC1 | -1 | 0.19
17 | OCc1nnsc1N1CCOCC1 | -26 | 3.05
18 | CN1CCN(C(=O)c2ccc(F)cc2F)c2ccccc2C1 | -12 | 1.62
19 | CS(=O)(=O)Cc1nc([C@H]2CCOC2)nn1C1Cc2ccccc2C1 | -3 | 0.49
20 | O=C(CCn1cnc2cc(-c3noc(Cc4ccc(Cl)cc4)n3)ccc21)N1CCCC1 | -18 | 2.35
21 | CC(=O)Nc1ccc(C)cc1-c1nc2ccccc2n(CC(=O)Nc2cc(C)cc(C)c2)c1=O | -5 | 1.02
22 | Cc1ccc(CN(Cc2ccccc2)C(=O)CN(CC(C)C)C(=O)Nc2ccc(C(C)C)cc2)o1 | -9 | 1.19

Row | Structure (SMILES) | % Inhibition [%] | Z score
23 | O=C(c1[nH]nc2c1CCCC2)n1ccnc1 | -5 | 0.6
24 | CC(=O)c1ccc(S(=O)(=O)N2CCN(Cc3cocn3)CC2)cc1 | -1 | 0.12
25 | O=c1[nH]ccn2nc(-c3ccc(F)cc3)cc12 | -8 | 1.58
26 | CN(Cc1ncnn1-c1ccc2c(c1)CCC2)[C@H]1CCS(=O)(=O)C1 | -2 | 0.32
27 | O=C(NCC1(C2(O)CCC2)CC1)c1ncc2n1CCCC2 | 4 | -0.46
28 | Cc1noc(C)c1CN(C)C(=O)c1ccc(-c2ncnn2C(C)C)cc1 | -12 | 1.28
29 | CCc1nc(CC)n(Cc2nnc(-c3ccc(Cl)cc3)o2)n1 | -9 | 1.25
30 | C[C@H]1CC[C@@](C)(CNS(=O)(=O)C2CC2)C1(C)C | -12 | 1.66
31 | CCn1cnnc1CNC(=O)N(Cc1cccc(O)c1)CC1CC1 | -9 | 1.03
32 | O=C1CCC2(CCN(CCCc3ccccc3)CC2)CN1CCc1cccnc1 | 16 | -2.01
33 | CCc1ncc2c(n1)CN(C(=O)c1cnc3ccccn13)C2 | -16 | 2.26
34 | CCOc1ccccc1C(=O)N1C[C@H](C(=O)NC)C2(CCCC2)C1 | -12 | 1.49
35 | O=C(NCC1(COc2ccccc2)CC1)N1CCN(CCO)CC1 | -5 | 0.78
36 | CC1CC(NCC(O)c2cccs2)CC(C)O1 (configuration not stated) | -13 | 1.81
37 | COc1cccc(-c2nc(N3CCCCCC3)c3ccccc3n2)c1O | -14 | 1.84
38 | CCc1cnc(CNC(=O)Nc2c(C)nsc2C)o1 | -5 | 0.46
39 | CC(C)(C)CS(=O)(=O)N1CCC(O)(C(F)(F)F)CC1 | 16 | -2.02
40 | Cc1ccc(C(=O)N2CCC(c3nnc(Cn4ccnc4C)n3C)CC2)cc1 | 6 | -1.08
41 | O=C1CCCN1CCc1nc(-c2ccc3c(c2)OCCO3)cs1 | -6 | 0.5
42 | Cc1cc(N2CCC[C@@]3(CCC(=O)N(CCc4ccccc4)C3)C2)ncn1 | 7 | -0.9
43 | CCC(CC)(CNC(=O)[C@@H]1CCO[C@H]1c1ccnn1C)OC | -1 | 0.18
44 | CC(C)CN1CC[C@H](CNC(=O)N2CC(Cc3ccccc3)C2)C1 | -3 | 0.49

Row | Structure (SMILES) | % Inhibition [%] | Z score
45 | Cc1nc(-c2ccc(C)c(S(=O)(=O)NC3CCCC3)c2)cs1 | 3 | -0.34
46 | CCCN(C(=O)c1cccs1)C1CCN(Cc2ccc3cn[nH]c3c2)CC1 | -2 | 0.42
47 | CCc1ocnc1C(=O)N1CCC[C@@H]1CF | -7 | 0.85
48 | CC(C)(O)CN1CCN(C(=O)c2ccc3c(c2)OCCCO3)CC1 | 1 | -0.14
49 | OC[C@H]1CN(Cc2ccc(F)c(F)c2F)C[C@H]1CN1CCCCC1 | 0 | 0.04
50 | COc1ccc(Cl)cc1N1CC[C@H](NC(=O)N2CCOCC2)C1 | -11 | 0.99
51 | Cc1ccc(NS(=O)(=O)c2cccc(-n3cnnn3)c2)c(C)c1O | -4 | 0.65
52 | CN1CCOc2ccc(NC(=O)c3ccncc3Br)cc21 | -7 | 1.43
53 | CC(C)N(CCS(=O)(=O)N1CCNCC1)C(=O)c1ccccc1 | -4 | 0.5
54 | COc1cc2ccccc2cc1C(=O)Nc1nc(C)cc(C)n1 | -18 | 2.42
55 | O=C(NCc1ccco1)c1nnc(Cc2c(F)cccc2Cl)o1 | -8 | 1.32
56 | COCCC(=O)Nc1ccc2c(c1)C(C)(C)CC2(C)C | 0 | -0.05
57 | O=S1(=O)CCC[C@H](Cc2ccc3oc(C4CC4)nc3c2)C1 | -15 | 1.46
58 | COc1ccccc1[C@H]1CC(=O)Nc2c1cnn2Cc1ccccc1 | 0 | 0.02
59 | COc1ccccc1[C@H](CNS(C)(=O)=O)OC | 0 | -0.01
60 | Cc1nc([C@H](C)N(C)S(=O)(=O)c2ccc(NS(=O)(=O)N(C)C)cc2)c(C)s1 | -4 | 0.72
61 | CCCOCCN1CCN(C(=O)c2cccc(-c3nc(C)n(C)n3)c2)CC1 | 0 | -0.05
62 | CC(NC(=O)NC(c1ccccc1Cl)C(C)C)C(=O)NCCF (configuration not stated) | 10 | -1.71
63 | Cn1cc(Cl)cc1C(=O)NCc1ccc2[nH]c(=O)[nH]c2c1 | -9 | 1.72
64 | Cc1ccc(OCC(=O)N(C)[C@H](c2ccc(C)cc2)c2c[nH]c3ccccc23)cc1 | 13 | -1.72
65 | Cc1cc(C)n2nc(C)c(C(=O)N3CCN(c4ncnc(C)c4C)CC3)c2n1 | -14 | 1.67
66 | C(#CCN1CCOCC1)COCCCOC(c1ccccc1)c1ccccc1 | -9 | 1.65

Row | Structure (SMILES) | % Inhibition [%] | Z score
67 | CCC(NCC(=O)NC1CCCCNC1=O)c1ccc(F)cc1F (configuration not stated) | 4 | -0.42
68 | O=C(Cn1ccccc1=O)Nc1nc2ccccc2[nH]1 | 29 | -3.94
69 | Cc1c(-c2cccc(Cl)c2)nn2c1N=C(O)C[C@H]2C(=O)Nc1cccc(Cl)c1 | -6 | 0.73
70 | Cc1nc(-c2ccc(N3CCOCC3)cc2)no1 | -4 | 0.5
71 | CCCn1ccnc1-c1cn(C[C@H](C)N2CCN(C)CC2)nn1 | 7 | -0.99
72 | CCn1c(C)c(CN2CCC(C(=O)N[C@H]3CCCc4ccccc43)CC2)c2ccccc21 | 2 | -0.32
73 | CC(C)c1n[nH]c([C@@H]2CN(Cc3ccn(C)c(=O)c3)CCO2)n1 | 0 | -0.07
74 | CCn1ncc(NC(=O)Cc2ccccc2Cl)c(N2CCCCC2)c1=O | -4 | 0.72
75 | COc1cnccc1C(C)NC(=O)N1CCCC(c2ccc(F)c(F)c2)C1 (configuration not stated) | -15 | 1.88
76 | CC1(C)NC(=O)N(CC2(c3ccc(F)cc3F)CC2)C1=O | -4 | 0.43
77 | CCN(CC)CCN(CCC(F)(F)F)CC(=O)Nc1ccc(C)cc1Cl | -2 | 0.23
78 | CCC1(CC)CCN(C(=O)c2nc(-c3cnn(C)c3)oc2C)CC1 | 0 | -0.06
79 | COc1ccccc1CNC(=O)CC1CCN(C(=O)c2ccc3oc(-c4ccc(C)cc4)nc3c2)CC1 | -8 | 0.9
80 | CC(=O)OC(C)(C)C(=O)N[C@@H](C)Cc1ccc2c(c1)CCO2 | -5 | 0.62
81 | O=C(NCc1ccccc1F)[C@H]1CCCN(c2nnc3c(Cl)cccn23)C1 | -4 | 0.39
82 | C[C@H](Oc1ccc(C(=O)N2CCNC(=O)C2)cn1)c1ccccc1 | -12 | 1.14
83 | Cc1nnc(NCCc2ccc(Cl)cc2)[nH]c1=O | -5 | 0.72
84 | CCc1noc(-c2ccn3c(CNC(=O)CCC4CCCC4)nnc3c2)n1 | -13 | 2.46
85 | CCOc1ccc(N2CCN(CCn3cnc4ccccc4c3=O)CC2)cc1 | 31 | -3.46
86 | CC(C)(C)OC(=O)N[C@@H]1C=CC[C@@H](C(=O)O)C1 | 3 | -0.44

Source: ChEMBL document CHEMBL4888484, “Replenishing the malaria drug discovery pipeline: Screening and hit evaluation of the MMV Hit Generation Library 1 (HGL1) against asexual blood stage Plasmodium falciparum ,using a nano luciferase reporter read-out” (2022)
